Source: the supplement of paper PMC9174493
The other results are listed elsewhere or left out. Single values of this set are uncertain. Values with irradiation are relative to irradiated vehicle.

system: A549-Dual; test: NF-kB reporter (SEAP) activity, viability-corrected, relative to vehicle (fold change vs vehicle); higher = more activation of STING-IRF / NF-kB immune response reporter; conditions: 0.3 µM; irradiation: none
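Further: viability correction based on the alamar blue assay, with concentrations leaving 10% survival or less dropped.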

| SMILES | NF-kB reporter |
| --- | --- |
| CC(C(=O)O)c1cccc(C(=O)c2ccccc2)c1 (stereo not given) [Ketoprofen] | 1.04 |
| CNC1CCC(c2ccc(Cl)c(Cl)c2)c2ccccc21.Cl (stereo not given) [Sertraline HCl] | 0.889 |
| CC1(C)OC2CC3C4CCC5=CC(=O)CCC5(C)C4(F)C(O)CC3(C)C2(C(=O)CCl)O1 (stereo not given) [Halcinonide] | 1.58 |
| CC(=O)OC12COC1CC(O)C1(C)C(=O)C(O)C3=C(C)C(OC(=O)C(O)C(NC(=O)OC(C)(C)C)c4ccccc4)CC(O)(C(OC(=O)c4ccccc4)C21)C3(C)C (stereo not given) [Docetaxel] | 2.46 |
| CCN(CC)Cc1cc(Nc2ccnc3cc(Cl)ccc23)ccc1O.Cl.Cl [Amodiaquine hydrochloride] | 1.04 |
| Cc1c(N)c(=O)n(-c2ccccc2)n1C [4-Aminoantipyrine] | 0.884 |
| Cn1cnc2c(F)c(Nc3ccc(Br)cc3F)c(C(=O)NOCCO)cc21 | 1.34 |
| CC1(C)C2CCC1(C)C(O)C2 (stereo not given) [Borneol] | 1.75 |
| CC1CC2C3CCC4=CC(=O)C=CC4(C)C3(Cl)C(O)CC2(C)C1(OC(=O)c1ccco1)C(=O)CCl (stereo not given) [Mometasone furoate] | 0.836 |
| CCN(CC)CCCC(C)Nc1ccnc2cc(Cl)ccc12.O=P(O)(O)O.O=P(O)(O)O (stereo not given) [Chloroquine Phosphate] | 1.48 |
| COc1cc2c(cc1Cc1cccc(Cl)c1F)c(=O)c(C(=O)O)cn2C(CO)C(C)C (stereo not given) [Elvitegravir (GS-9137, JTK-303)] | 1.28 |
| O=c1[nH]c(=O)n(C2CC(O)C(CO)O2)cc1F (stereo not given) [Floxuridine] | 1.58 |
| CC1(C)CCC(CN2CCN(c3ccc(C(=O)NS(=O)(=O)c4ccc(NCC5CCOCC5)c([N+](=O)[O-])c4)c(Oc4cnc5[nH]ccc5c4)c3)CC2)=C(c2ccc(Cl)cc2)C1 [Venetoclax (ABT-199, GDC-0199)] | 1.04 |
| Cc1ccc(NC(=O)c2ccc(CN3CCN(C)CC3)cc2)cc1Nc1nc(-c2cccnc2)cs1 [Masitinib (AB1010)] | 1.11 |
| CCc1cc(/C(C)=N/OCc2ccc(C3CCCCC3)c(C(F)(F)F)c2)ccc1CN1CC(C(=O)O)C1 [BAF312 (Siponimod)] | 0.615 |
| CN(C)C(=O)COC(=O)Cc1ccc(OC(=O)c2ccc(NC(=N)N)cc2)cc1.CS(=O)(=O)O [Camostat Mesilate] | 1.52 |
| Nc1nc(=S)c2[nH]cnc2[nH]1 [Thioguanine] | 1.01 |
| OCC1OC(Oc2cc(O)cc(/C=C/c3ccc(O)cc3)c2)C(O)C(O)C1O (stereo not given) [Polydatin] | 2.51 |
| COc1cc(N2CCC(N3CCN(C)CC3)CC2)ccc1Nc1ncc(Cl)c(Nc2ccccc2P(C)(C)=O)n1 | 0.773 |
| Cc1cccn2c(=O)c(-c3nnn[n-]3)cnc12.[K+] [Pemirolast potassium] | 1.04 |
| Cc1cccc(N(C)C(=S)Oc2ccc3ccccc3c2)c1 [Tolnaftate] | 0.92 |

same assay, conditions: 1 µM; irradiation: 8 Gy/4 fr

| SMILES | NF-kB reporter |
| --- | --- |
| C=CC(=O)Nc1cc(Nc2nccc(-c3cn(C)c4ccccc34)n2)c(OC)cc1N(C)CCN(C)C [Osimertinib (AZD9291)] | 1.02 |
| CC1CC2C3CCC4=CC(=O)C=CC4(C)C3(F)C(O)CC2(C)C1(O)C(=O)COP(=O)([O-])[O-].[Na+].[Na+] (stereo not given) [Dexamethasone Sodium Phosphate] | 0.688 |
| O=C(O)CCCN1CCC(OC(c2ccc(Cl)cc2)c2ccccn2)CC1.O=S(=O)(O)c1ccccc1 (stereo not given) [Bepotastine Besilate] | 1.07 |
| CC(=O)OC(C)C(C)C(=O)OCC12C3CC4(C)C(=CCC5C6(C)CCC(OC7OC(C(=O)[O][Na])C(OC8OC(CO)C(O)C(O)C8O)C(O)C7OC7OCC(O)C(O)C7O)C(C)(CO)C6CCC54C)C1CC(C)(C)C(O3)C2O (stereo not given) [Sodium Aescinate] | 1.35 |
| Nc1nc(CC(=O)Nc2ccc(CCNCC(O)c3ccccc3)cc2)cs1 (stereo not given) [Mirabegron] | 0.906 |
| O=C1OC(OC(=O)c2cccnc2Nc2cccc(C(F)(F)F)c2)c2ccccc21 (stereo not given) [Talniflumate] | 1.01 |
| CN1C(C(=O)Nc2ccccn2)=C(O)c2sccc2S1(=O)=O [Tenoxicam] | 1.07 |
| CCC(=O)NS(=O)(=O)c1ccc(-c2c(-c3ccccc3)noc2C)cc1 [Parecoxib] | 1.12 |
| CNCC(O)C(O)C(O)C(O)CO.Cc1c(Nc2ncccc2C(=O)O)cccc1C(F)(F)F [Flunixin Meglumin] | 1.14 |
| Cc1cncc(CN2CCC(=C3c4ccc(Cl)cc4CCc4cccnc43)CC2)c1.O=C(O)/C=C/C(=O)O [Rupatadine Fumarate] | 0.706 |
| COC(=O)CC(O)(CCCC(C)(C)O)C(=O)OC1C(OC)=CC23CCCN2CCc2cc4c(cc2C13)OCO4 (stereo not given) [Homoharringtonine] | 1.17 |
| CC(C(=O)[O-])c1ccc(CC2CCCC2=O)cc1.[Na+] (stereo not given) [Loxoprofen Sodium] | 1.15 |
| C=C1c2cccc(O)c2C(=O)C2=C(O)C3(O)C(=O)C(C(N)=O)=C(O)C(N(C)C)C3C(O)C12.Cl (stereo not given) [Methacycline HCl] | 1.29 |
| CC1CCC2(C(=O)OC3OC(COC4OC(CO)C(OC5OC(C)C(O)C(O)C5O)C(O)C4O)C(O)C(O)C3O)CCC3(C)C(=CCC4C5(C)CC(O)C(O)C(C)(CO)C5CCC43C)C2C1C (stereo not given) [Asiaticoside] | 1.34 |
| Nc1nc(F)nc2c1ncn2C1OC(CO)C(O)C1O (stereo not given) [Fludarabine] | 0.794 |
| O=NN(CCCl)C(=O)NC1CCCCC1 [Lomustine] | 0.786 |
| O=CC(O)C(O)C(O)C(O)COC1OC(CO)C(O)C(O)C1O (stereo not given) [Melibiose] | 1.45 |
| O.S=c1nc[nH]c2nc[nH]c12 [6-Mercaptopurine (6-MP) Monohydrate] | 0.885 |
| CC(C(=O)O)c1cccc(C(=O)c2ccccc2)c1 (stereo not given) [Ketoprofen] | 1.31 |
| CNC1CCC(c2ccc(Cl)c(Cl)c2)c2ccccc21.Cl (stereo not given) [Sertraline HCl] | 1.03 |

| SMILES | NF-kB reporter |
| --- | --- |
| CC1(C)OC2CC3C4CCC5=CC(=O)CCC5(C)C4(F)C(O)CC3(C)C2(C(=O)CCl)O1 (stereo not given) [Halcinonide] | 1.63 |
| CC(=O)OC12COC1CC(O)C1(C)C(=O)C(O)C3=C(C)C(OC(=O)C(O)C(NC(=O)OC(C)(C)C)c4ccccc4)CC(O)(C(OC(=O)c4ccccc4)C21)C3(C)C (stereo not given) [Docetaxel] | 1.08 |
| CCN(CC)Cc1cc(Nc2ccnc3cc(Cl)ccc23)ccc1O.Cl.Cl [Amodiaquine hydrochloride] | 1.1 |
| Cc1c(N)c(=O)n(-c2ccccc2)n1C [4-Aminoantipyrine] | 1.27 |
| Cn1cnc2c(F)c(Nc3ccc(Br)cc3F)c(C(=O)NOCCO)cc21 | 0.902 |
| CC1(C)C2CCC1(C)C(O)C2 (stereo not given) [Borneol] | 1.3 |
| CC1CC2C3CCC4=CC(=O)C=CC4(C)C3(Cl)C(O)CC2(C)C1(OC(=O)c1ccco1)C(=O)CCl (stereo not given) [Mometasone furoate] | 0.984 |
| CCN(CC)CCCC(C)Nc1ccnc2cc(Cl)ccc12.O=P(O)(O)O.O=P(O)(O)O (stereo not given) [Chloroquine Phosphate] | 1.02 |
| COc1cc2c(cc1Cc1cccc(Cl)c1F)c(=O)c(C(=O)O)cn2C(CO)C(C)C (stereo not given) [Elvitegravir (GS-9137, JTK-303)] | 1.2 |
| O=c1[nH]c(=O)n(C2CC(O)C(CO)O2)cc1F (stereo not given) [Floxuridine] | 1.31 |
| CC1(C)CCC(CN2CCN(c3ccc(C(=O)NS(=O)(=O)c4ccc(NCC5CCOCC5)c([N+](=O)[O-])c4)c(Oc4cnc5[nH]ccc5c4)c3)CC2)=C(c2ccc(Cl)cc2)C1 [Venetoclax (ABT-199, GDC-0199)] | 0.916 |
| Cc1ccc(NC(=O)c2ccc(CN3CCN(C)CC3)cc2)cc1Nc1nc(-c2cccnc2)cs1 [Masitinib (AB1010)] | 0.886 |
| CCc1cc(/C(C)=N/OCc2ccc(C3CCCCC3)c(C(F)(F)F)c2)ccc1CN1CC(C(=O)O)C1 [BAF312 (Siponimod)] | 0.931 |
| CN(C)C(=O)COC(=O)Cc1ccc(OC(=O)c2ccc(NC(=N)N)cc2)cc1.CS(=O)(=O)O [Camostat Mesilate] | 1.29 |
| Nc1nc(=S)c2[nH]cnc2[nH]1 [Thioguanine] | 0.74 |
| OCC1OC(Oc2cc(O)cc(/C=C/c3ccc(O)cc3)c2)C(O)C(O)C1O (stereo not given) [Polydatin] | 1.62 |
| COc1cc(N2CCC(N3CCN(C)CC3)CC2)ccc1Nc1ncc(Cl)c(Nc2ccccc2P(C)(C)=O)n1 | 0.871 |
| Cc1cccn2c(=O)c(-c3nnn[n-]3)cnc12.[K+] [Pemirolast potassium] | 0.894 |
| Cc1cccc(N(C)C(=S)Oc2ccc3ccccc3c2)c1 [Tolnaftate] | 0.794 |
